# Assay results: the BET-seq Pho4 binding data (Le et al. 2018)
# Some of the results follow. The energies were worked out here from pooled read counts, against the library average; single values are noisy.
# Biological target: T1, Pho4 (S. cerevisiae) (UniProt P07270)
# T1 sequence: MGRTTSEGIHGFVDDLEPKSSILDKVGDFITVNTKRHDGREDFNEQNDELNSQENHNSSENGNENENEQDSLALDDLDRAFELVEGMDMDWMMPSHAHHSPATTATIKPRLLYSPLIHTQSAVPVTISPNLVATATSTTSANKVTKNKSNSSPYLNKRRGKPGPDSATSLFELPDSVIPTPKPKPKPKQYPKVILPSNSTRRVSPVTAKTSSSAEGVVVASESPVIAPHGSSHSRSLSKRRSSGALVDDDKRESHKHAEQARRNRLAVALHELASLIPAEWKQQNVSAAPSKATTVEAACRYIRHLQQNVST
# Assay: relative binding free energy (BET-seq); higher = weaker binding
# Settings: reference: library average
row,Sequence,relative binding free energy [kcal/mol]
1,AGTCACACGTGTGGAT,0.07
2,GTTGGCACGTGTTTGA,0
3,GGAAGCACGTGTTATG,-0.27
4,TGCAACACGTGTTTGT,-0.04
5,CGGATCACGTGAGGGA,0.26
6,TTTCTCACGTGACGTG,0.33
7,CGAATCACGTGTGAGT,0.23
8,AGCGACACGTGGGCGG,-0.28
9,GGTTACACGTGGTAGG,0.16
10,GTGTCCACGTGTATTG,0.02
11,TGTGTCACGTGGAGTT,0.19
12,TTGACCACGTGGTAGT,-0.24
13,CAGGTCACGTGGGGAA,0.06
14,TGTATCACGTGGTTTA,0.05
15,AGGATCACGTGTATAT,0.18
16,TGTCGCACGTGGAATT,0.14
17,GCTGACACGTGCGGGG,-0.1
18,AGGGACACGTGTAGCT,0.07
19,TCGTACACGTGAATGG,0.19
20,GGTTTCACGTGGCGCA,0.18
21,TTGGTCACGTGGTTAT,0.13
22,TTGAACACGTGAAGTT,0.47
23,TGGTTCACGTGAAGCA,0.39
24,GTTGCCACGTGGTGAG,0.01
25,ATGGGCACGTGGAACG,-0.1

row,Sequence,relative binding free energy [kcal/mol]
1,TGTTACACGTGGGACG,-0.04
2,GGTGACACGTGGGCAG,-0.13
3,GTTTCCACGTGGAGTG,0.14
4,ATTGGCACGTGTGTGC,-0.17
5,GATCGCACGTGGGTTG,-0.12
6,GGAGGCACGTGTTGTG,-0.02
7,TTGAACACGTGTTGCA,-0.03
8,AGTAACACGTGAAGGT,0.1
9,GGTTTCACGTGGTTAG,0.28
10,TTAGGCACGTGTGCAT,-0.05
11,TTTGTCACGTGAGTTT,0.3
12,GTTTACACGTGTTAAA,0.22
13,TAAAGCACGTGGGGGG,-0.18
14,TTTCCCACGTGATGGT,0.28
15,TCGTTCACGTGCTAGT,0.27
16,TCGTACACGTGTTGGC,0.26
17,TATTACACGTGTGGAG,0.17
18,GGTTGCACGTGTCCGG,0.12
19,TATGCCACGTGTAGGT,-0.15
20,AAGAGCACGTGGCATG,-0.14
21,ATGTGCACGTGGCGGT,-0.12
22,GGGTCCACGTGATGGG,0.16
23,AGTGGCACGTGGTCGT,-0.12
24,GGTCACACGTGGTATG,-0.02
25,TTTAGCACGTGGTTAA,-0.18

row,Sequence,relative binding free energy [kcal/mol]
1,GATTTCACGTGTAGCT,0.25
2,TTTCGCACGTGTATAG,-0.16
3,GAGGGCACGTGTAATA,0.05
4,GGTGGCACGTGAGGGA,0.2
5,TGTGACACGTGCGTTG,-0.06
6,ATAGACACGTGATGTG,-0.02
7,AGGGGCACGTGACGCT,-0.01
8,TGTTCCACGTGAGTGT,0.23
9,AAGGCCACGTGGTAGG,-0.11
10,GGAGTCACGTGCGGGC,0.03
11,TTGTACACGTGTTGTG,0.04
12,GAGATCACGTGTGGTA,0.22
13,TAATTCACGTGGATAG,0.24
14,GGTTACACGTGAGGGG,0.41
15,GGAATCACGTGGAGGA,0.15
16,CGTTGCACGTGATGGC,0.03
17,GATGGCACGTGGTGCT,-0.09
18,GAATCCACGTGGTGTG,0
19,AGGGCCACGTGGGAGA,-0.14
20,GATGGCACGTGCGCGT,-0.23
21,TGCTTCACGTGATGTT,0.38
22,TGTCGCACGTGTGTCG,-0.09
23,GGGCGCACGTGGGTCG,-0.23
24,AATCGCACGTGGATGT,-0.05
25,TAAGGCACGTGATTTA,-0.02

row,Sequence,relative binding free energy [kcal/mol]
1,CGATGCACGTGGGATT,-0.1
2,ACTTACACGTGGTGTT,-0.01
3,TTAGACACGTGGGGTG,-0.15
4,TATGTCACGTGGAGGA,0.08
5,GTTTGCACGTGGGTCT,-0.04
6,TCCAGCACGTGTGGGG,0.03
7,TATGTCACGTGTATGC,0.13
8,GGAGCCACGTGTGTGC,0.17
9,TCGGTCACGTGGAATG,0.17
10,TGGGACACGTGCGGCG,-0.05
11,GTTCACACGTGTTGGT,0.35
12,AGCTTCACGTGTTGGT,0.23
13,GGCGCCACGTGGTAGT,-0.13
14,ACTGGCACGTGGGGTT,-0.24
15,GCTTGCACGTGATGTT,0.24
16,TAGTTCACGTGCGCTT,0.2
17,AGTTACACGTGGGTGG,-0.02
18,AATAACACGTGGGTGT,-0.22
19,TTAAACACGTGTAGGC,0.03
20,ATTGACACGTGGCGGG,-0.01
21,CGGGGCACGTGCCTGT,-0.23
22,GTCGTCACGTGTCTGG,0.1
23,TGATTCACGTGTGCGT,0.25
24,AAGAGCACGTGAGGGA,0.1
25,AGGATCACGTGGGGAA,0.03

row,Sequence,relative binding free energy [kcal/mol]
1,TTAGGCACGTGTATTA,0.05
2,GTTGGCACGTGGAGTA,-0.16
3,TGCGGCACGTGGACTT,-0.03
4,GTGTTCACGTGATAAT,0.35
5,CGTTTCACGTGGTGGC,0.2
6,GGATTCACGTGGTGAT,0.34
7,TGGGGCACGTGTTGCT,-0.06
8,TGATACACGTGGCTTT,-0.03
9,TGTATCACGTGGGGCG,-0.09
10,TTAATCACGTGTTGAA,0.13
11,TTAGTCACGTGGATCT,0.04
12,GAAGGCACGTGGAGAG,-0.06
13,GAGGTCACGTGGATCA,0.35
14,ATATGCACGTGGAAGG,-0.08
15,GAGGTCACGTGGGCGC,0.02
16,CTACGCACGTGTGGAG,0.06
17,ACTTACACGTGGGGCG,0.17
18,AATAGCACGTGAGGCG,0.12
19,TGTGCCACGTGTGGAG,-0.03
20,TATCTCACGTGGTCGG,0.09
21,GGGTACACGTGGCTGA,0.05
22,AGTTTCACGTGGTCCG,0.3
23,GCGATCACGTGGGGGC,0.2
24,AGTGGCACGTGATGTT,0.07
25,TTAGACACGTGCTGGT,0.01

row,Sequence,relative binding free energy [kcal/mol]
1,TGCTGCACGTGGAGTT,0.04
2,TTATCCACGTGTGGCG,0.14
3,CAAAGCACGTGTAGGG,-0.01
4,TGTAGCACGTGGAGTG,-0.16
5,AAACTCACGTGGTTTG,0.29
6,GTAGGCACGTGACGTA,0.16
7,AGGATCACGTGAGCGG,0.29
8,TTTGTCACGTGCTGAG,0.08
9,TGGTTCACGTGGTCGG,0.32
10,CTGGCCACGTGGGGAG,-0.16
11,GCGTTCACGTGATTGA,0.51
12,TTTCCCACGTGTGGTA,0.1
13,GTCAGCACGTGGGTCG,-0.18
14,ATAAGCACGTGGCTTG,-0.14
15,GGTTACACGTGGGCAT,0.03
16,TGACTCACGTGTTATT,0.09
17,GTAGGCACGTGAACGT,0.1
18,GTAAGCACGTGGTGAA,-0.22
19,GGTATCACGTGTTCTA,0.3
20,TTTGGCACGTGTATAC,-0.12
21,GTGAGCACGTGAGTCG,0.19
